Source: the supplement of paper PMC4967469

How the values were obtained:
Assay in all cases: Viability of human cancer cell lines after 72 h of drug (GDSC screen)
Docetaxel = compound: CC(=O)O[C@@]12CO[C@@H]1C[C@H](O)[C@@]1(C)C(=O)[C@H](O)C3=C(C)[C@@H](OC(=O)[C@H](O)[C@@H](NC(=O)OC(C)(C)C)c4ccccc4)C[C@@](O)([C@@H](OC(=O)c4ccccc4)[C@H]21)C3(C)C [Docetaxel]; settings: top dose 0.0125 µM
Method: (§1)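 Human cancer cell lines in 384-well plates, medium with 10% serum, drug for 72 h over a 256-fold dose range (nine 2-fold or five 4-fold steps up to the top dose). Adherent lines were fixed and stained with the nucleic acid dye Syto60, suspension lines read with resazurin; signal relative to control wells, capped at 0 and 100%. One two-parameter sigmoid per drug and line, fitted in a mixed model over all curves with the slope shared within a line.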

AMG-706 = compound: CC1(C)CNc2cc(NC(=O)c3cccnc3NCc3ccncc3)ccc21 [AMG-706]; settings: top dose 2 µM; top dose inferred
Method: as §1

Cyclopamine = compound: CC1=C2C[C@H]3[C@@H](CC=C4C[C@@H](O)CC[C@@]43C)[C@@H]2CC[C@]12O[C@@H]1C[C@H](C)CN[C@H]1[C@H]2C [Cyclopamine]; settings: top dose 16 µM; top dose inferred
Method: as §1

JNK Inhibitor VIII = compound: CCOc1nc(NC(=O)Cc2cc(OC)ccc2OC)cc(N)c1C#N [JNK Inhibitor VIII]; settings: top dose 10 µM; top dose inferred
Method: as §1

NSC-207895 = compound: CN1CCN(c2ccc([N+](=O)[O-])c3no[n+]([O-])c23)CC1 [NSC-207895]; settings: top dose 20 µM; top dose inferred
Method: as §1

FTI-277 = compound: COC(=O)[C@H](CCSC)NC(=O)c1ccc(NC[C@@H](N)CS)cc1-c1ccccc1 [FTI-277]; settings: top dose 1.024 µM; top dose inferred
Method: as §1

YM155 = compound: COCC[n+]1c2c(n(Cc3cnccn3)c1C)C(=O)c1ccccc1C2=O [YM155]; settings: top dose 5.12 µM
Method: as §1

NVP-TAE684 = compound: COc1cc(N2CCC(N3CCN(C)CC3)CC2)ccc1Nc1ncc(Cl)c(Nc2ccccc2S(=O)(=O)C(C)C)n1 [NVP-TAE684]; settings: top dose 2 µM
Method: as §1

OSI-906 = compound: C[C@]1(O)C[C@@H](c2nc(-c3ccc4ccc(-c5ccccc5)nc4c3)c3c(N)nccn32)C1 [OSI-906]; settings: top dose 2.56 µM; top dose inferred
Method: as §1

SB-715992 = compound: Cc1ccc(C(=O)N(CCCN)[C@@H](c2nc3cc(Cl)ccc3c(=O)n2Cc2ccccc2)C(C)C)cc1 [SB-715992]; settings: top dose 0.128 µM; top dose inferred
Method: as §1

JQ1 = compound: Cc1sc2c(c1C)C(c1ccc(Cl)cc1)=N[C@@H](CC(=O)OC(C)(C)C)c1nnc(C)n1-2 [JQ1]
Method: as §1

Belinostat = compound: O=C(/C=C/c1cccc(S(=O)(=O)Nc2ccccc2)c1)NO [Belinostat]; settings: top dose 20 µM; top dose inferred
Method: as §1

CGP-60474 = compound: OCCCNc1cc(-c2ccnc(Nc3cccc(Cl)c3)n2)ccn1 [CGP-60474]; settings: top dose 0.256 µM; top dose inferred
Method: as §1

JNJ-26854165 = compound: c1ccc2c(CCNc3ccc(Nc4ccncc4)cc3)c[nH]c2c1 [JNJ-26854165]; settings: top dose 10 µM
Method: as §1

[1] = top dose 1 µM, screen: GDSC drug entry 1218, top dose inferred
[2] = top dose 2.56 µM, screen: GDSC drug entry 163

Row | Cell Line | AUC (Docetaxel) | IC50 (Docetaxel) [nM] | AUC (AMG-706) | IC50 (AMG-706) [nM] | AUC (Cyclopamine) | IC50 (Cyclopamine) [nM] | AUC (JNK Inhibitor VIII) | IC50 (JNK Inhibitor VIII) [nM] | AUC (NSC-207895) | IC50 (NSC-207895) [nM] | AUC (FTI-277) | IC50 (FTI-277) [nM] | AUC (YM155) | IC50 (YM155) [nM] | AUC (NVP-TAE684) | IC50 (NVP-TAE684) [nM] | AUC (OSI-906) | IC50 (OSI-906) [nM] | AUC (SB-715992) | IC50 (SB-715992) [nM] | AUC (JQ1; [1]) | IC50 (JQ1; [1]) [nM] | AUC (JQ1; [2]) | IC50 (JQ1; [2]) [nM] | AUC (Belinostat) | IC50 (Belinostat) [nM] | AUC (CGP-60474) | IC50 (CGP-60474) [nM] | AUC (JNJ-26854165) | IC50 (JNJ-26854165) [nM]
1 | A4-Fuk (B-cell lymphoma, suspension) | 0.879 | > 12.5 | 0.985 | > 2000 | 0.985 | > 16000 | 0.986 | > 10000 | 0.891 | > 20000 | 0.98 | > 1020 | 0.194 | 37.3 | 0.399 | 65.3 | 0.287 | 38.9 | 0.831 | 85.7 | 0.983 | > 1000 | 0.553 | 224 | 0.75 | 6810 | 0.588 | 28.2 | 0.816 | 5830
2 | A253 (head and neck, adherent) | 0.811 | 6.44 | 0.982 | > 2000 | 0.986 | > 16000 | 0.984 | > 10000 | 0.986 | > 20000 | 0.987 | > 1020 | 0.053 | < 20 | 0.972 | > 2000 | 0.988 | > 2560 | 0.858 | 101 | 0.988 | > 1000 | 0.848 | 1830 | 0.717 | 5060 | 0.728 | 69.7 | 0.865 | 8420
3 | BC-1 (B-cell lymphoma, suspension) | 0.986 | > 12.5 | 0.991 | > 2000 | 0.961 | > 16000 | 0.979 | > 10000 | 0.792 | 7590 | 0.973 | > 1020 | 0.017 | < 20 | 0.975 | > 2000 | 0.933 | > 2560 | 0.537 | 9.94 | 0.663 | 164 | 0.439 | 112 | 0.282 | 337 | 0.76 | 78 | 0.915 | > 10000
4 | CHP-126 (neuroblastoma, suspension) | 0.987 | > 12.5 | 0.942 | > 2000 | 0.985 | > 16000 | 0.985 | > 10000 | 0.94 | > 20000 | 0.982 | > 1020 | 0.217 | 46.1 | 0.774 | 804 | 0.79 | 1170 |  |  | 0.986 | > 1000 | 0.734 | 757 | 0.69 | 4340 | 0.764 | 95.6 | 0.965 | > 10000

Lines with a small IC50 respond at low doses; a fit beyond the top or the lowest dose is shown as a bound at that dose. AUC is the area under the same curve over the 256-fold range up to the top dose, as a fraction; values near 1 show little effect. For some of these results: An inferred top dose is not printed in the source and was worked back from the curve model. For some of these results: Drugs with an entry number were screened twice under separate entries, and the two screens often disagree.
